Results: PubChem BioAssay (NCI)
Several values for one entry are separate records, joined by “and”; a condition that tells them apart may be missing. Equal entries are not always repeated.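 Five compound concentrations were applied to cells in 96-well plates for 48 hours; endpoints were derived by simple linear interpolation of the resulting dose-response curve. GI50 is the concentration that inhibits growth by half. TGI is the concentration that stops growth completely.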 Numbered stars: 1 amine (or outer) side, 2 acyl side, 3 side chain; on linkers, the order of the positions; unused ones are H or OH. Bridge positions count the residues as written; N and C are the ends. Square brackets hold non-standard residues; d marks the D form. Peptide text beside a SMILES is read from it. I, II: the chains in the order shown. Actinocin(9to1) = Cc1c2oc3c(C)ccc(C(=O)[*:1])c3nc-2c(C(=O)[*:2])c(N)c1=O; NMeV = CN[CH](C(=O)O)C(C)C; Sar = CNCC(=O)O

System: NCI-H322M lung
Experiment: inhibition of tumour cell growth, NCI panel, 48 h

SMILES	GI50	TGI
c1ccc2cc(Cn3cc[n+](Cc4ccc5ccccc5c4)c3)ccc2c1	8.4 µM	21.3 µM
O=C1C=CC(=O)C2C1Cc1ccccc1C2c1ccccc1 (centres undefined)	–	> 100 µM
COc1ccc(C(C#N)=C2C=CC(=NO)C=C2)cc1	5.43 µM	18.1 µM
COC1CC(C)C(OC)c2cc(O)cc(c2O)NC(=O)/C(C)=C/C=C\C(C)C(OC(N)=O)/C(C)=C\C(C)C1OC (centres undefined)	0.862 µM and 2.48 µM	27.6 µM and 22.8 µM
C/C(=N/NC(=S)N(C)C)c1ccccc1O	–	> 100 µM
COC1=CC(=O)C2C(C1=O)[C@@H]1c3ccccc3OC(C)(C)[C@H]21 (some centres undefined)	–	> 100 µM
Cn1cnc([N+](=O)[O-])c1Sc1nnnn1C	–	> 100 µM
Cc1c(NC(=O)CCl)c(=O)oc2c(C)c3occc(=O)c3cc12	–	31.4 µM
Fc1ccc2[nH]cc(-c3nc(-c4c[nH]c5ccncc45)cs3)c2c1	1.52 µM	2.87 µM
O=C1NC(O)c2ccccc2O1 (centres undefined)	–	> 100 µM
CCN(CC)CCC(=O)OC1C(C)=CC(C)C(=O)CC(C(C)CC2CCC(O)C(OC)C2)OC(=O)C2CCCCN2C(=O)C(=O)[C@@]2(O)OC(CCC2C)CC(OC)\C(C)=C/C=C/C=C/C(C)CC(C)C(=O)C1OC (some centres undefined)	–	23.2 µM
CN(C)C(=S)/N=c1\ssc(=S)n1Cc1cccs1	–	> 100 µM
O=C(OCC1CCCN2CCCCC12)c1cccnc1 (centres undefined)	–	> 100 µM
O=C(N/N=C\c1cccs1)c1ccncc1	–	> 100 µM
CC1(C)Oc2ccc3c(=O)cc(-c4cccs4)oc3c2C1C(=O)O (centres undefined)	–	> 100 µM
COC(=O)CCCC1(CCCC(=O)OC)CCCCCCCCC(CCCC(=O)OC)(CCCC(=O)OC)C(=O)C1=O	–	> 100 µM
Cc1ccc(S(=O)(=O)/N=C2/N(C)CCCS2(=O)=O)cc1	–	> 100 µM
Cc1cc(C)nc(NS(=O)(=O)c2ccc(Nc3c4ccccc4nc4c(C(=O)Nc5ccc(S(=O)(=O)Nc6cc(C)on6)cc5)ccc(Cl)c34)cc2)n1	–	43 µM
COC(=O)[C@@H]1[C@H](O)CCC2=C(CC(=O)c3ccoc3)[C@H](C)CC[C@]21C	–	> 50 µM
N#CNC(=NCc1ccccc1)NCCc1c[nH]c2ccccc12	–	> 100 µM
Nc1ncnc2c1ncn2CCCC(c1ccccc1)P(=O)(O)O (centres undefined)	–	> 100 µM
c1ccc(C(c2cccc3c2ccc2ccccc23)C(c2ccccc2)c2cccc3c2ccc2ccccc23)cc1 (centres undefined)	–	> 100 µM
Cc1c2oc3c(C)ccc(C(=O)OC(C)C4NC(=O)C(C(C)C)N(C)C(=O)CN(C)C(=O)C5CCCN5C(=O)C(C(C)C)NC4=O)c3nc-2c(C(=O)OC(C)C2NC(=O)C(C(C)C)N(C)C(=O)CN(C)C(=O)C3CCCN3C(=O)C(C(C)C)NC2=O)c(N)c1=O (centres undefined) (I: cyclo([Sar][NMeV]TVP) / II: cyclo([Sar][NMeV]TVP); linker I:3-II:3 via Actinocin(9to1); configuration not given here)	< 0.01 µM	0.301 µM
O=C(/C=C/c1ccc2c(c1)OCO2)NCCc1ccco1	–	> 100 µM

SMILES	GI50	TGI
Nc1ncnc2c1sc(=S)n2-c1ccccc1	–	> 100 µM
CCCCCCCN(CCCCCCC)C(=N)c1ccnc2ccccc12	1.51 µM	3.01 µM
COc1ccc(OC)c(NC(=O)c2cccc(NC3=C(Cl)C(=O)N(Cc4ccccc4)C3=O)c2)c1	> 100 µM	> 100 µM
C=CCOC(=O)c1c(C)n([O-])c2cc(Cl)c(Cl)cc2[n+]1=O	–	85.7 µM
Cc1cn(CCC(N)C(=O)O)c(=O)[nH]c1=O (centres undefined)	–	> 100 µM
CCN1C(=O)N(CC)C2C1NN=c1s/c(=C\c3cccs3)c(=O)n12 (centres undefined)	0.618 µM	> 100 µM
C=C1C2C[C@@H]3OC4CC5O[C@]6(CC5OC4C(C)C3OC(=O)CC3CC[C@@H]4OC5C7OC8C[C@](CCC9CC(=C)[C@H](CCC(C[C@H]1C)O2)O9)(OC7C4O3)O[C@@H]85)C[C@@H]1O[C@@]2(CC(C)[C@@H]3OC(CC(=O)CCO)C(O)C[C@@H]3O2)CC(C)[C@@H]1O6 (some centres undefined)	–	1.76 µM
CC(=O)OC12CC(C(F)(F)F)(C(F)(F)F)OC1(OC(C)=O)CC(C(F)(F)F)(C(F)(F)F)O2 (centres undefined)	–	11.7 µM
N=S(=O)(c1ccccc1)c1ccccc1	–	> 100 µM
N#C/C=c1/c2ccccc2n2nc3ccccc3c12	–	> 100 µM
COCCOC(C)C(=O)C(O)S(=O)(=O)O (centres undefined)	–	> 100 µM
Nc1nc2c(c(-c3ccccc3Cl)n1)COC/C2=C\c1ccccc1Cl	–	30.8 µM
CC(=O)O[C@@]12CO[C@@H]1C[C@H](O)[C@@]1(C)C(=O)[C@H](O)C3=C(C)[C@@H](OC(=O)[C@H](O)[C@@H](NC(=O)OC(C)(C)C)c4ccccc4)C[C@@](O)([C@@H](OC(=O)c4ccccc4)C12)C3(C)C (some centres undefined)	–	> 100 µM
C=C1C(=O)O[C@H]2[C@H]1CC/C(Cn1cc(Cc3c[nH]c4ccccc34)nn1)=C\CC[C@@]1(C)O[C@@H]21	8.63 µM	20.9 µM
COc1cc(N)c2[nH]c3c(C)ccc(C)c3c2c1	–	> 100 µM
C=C1C(=O)O[C@H]2[C@H]1CC/C(COC(=O)c1cn(C)c3ccccc13)=C\CC[C@@]1(C)O[C@@H]21	3.01 µM	11.4 µM
CCCCCCCCCCCC[N+](C)(C)Cc1ccccc1	17 µM	32.8 µM
COc1cc(S(=O)(=O)Nc2ccc(-c3csc(N4C(=O)C(Cl)C4c4cccc(Oc5ccccc5)c4)n3)cc2)ccc1Cl (centres undefined)	–	> 100 µM
CC(C(=O)NCCNC(=O)CCC(=O)N(C)O)C(=O)NCCNC(=O)CCC(=O)N(C)O	–	> 100 µM
N/C(=N\S(=O)(=O)c1ccc(-c2ccccn2)s1)Nc1ccc(Cl)cc1	–	39.5 µM
Cc1c(OCCCOc2ccc3c(=O)cc(-c4ccccc4)oc3c2C)ccc2c(=O)cc(-c3ccccc3)oc12	–	> 100 µM
O=C1Nc2ccccc2/C1=C\c1cccc(/C=C2/C(=O)Nc3ccccc32)n1	1.07 µM	2.54 µM
NC(=S)Nc1ccc2c(c1)oc1ccccc12	–	> 100 µM
COC(NC(N)=O)C(=O)O (centres undefined)	–	> 100 µM

SMILES	GI50	TGI
CC(=O)NNC(=S)/N=C\c1c(O)c2ccccc2oc1=O	–	> 100 µM
COC(=O)c1ccccc1NC(=S)NN(C)C	–	> 100 µM
CCOC(=O)CCC(NC(=O)c1ccc(Nc2nc3cc(C(F)(F)F)ccc3nc2C(=O)OCC)cc1)C(=O)OCC (centres undefined)	–	24.8 µM
O=C1NC(=O)[C@@]2(CC[C@@H](O)C2)c2ccncc21	–	> 100 µM
N#CCCN(CCC#N)c1ccc(/C=C2\SC(=S)NC2=O)cc1	–	> 100 µM
O=C1/C(=C/c2ccc(F)c(F)c2)CN(C(=O)C(Cl)Cl)C/C1=C\c1ccc(F)c(F)c1	0.264 µM	0.981 µM
O=c1c(Nc2ccccc2)cn(CCOc2ccc(Cl)cc2)c(=O)n1CCOc1ccc(Cl)cc1	–	> 100 µM
COc1cc(NS(C)(=O)=O)ccc1NCc1cnc2ccc3[nH]cccc3c12	–	66.7 µM
Cn1cc(-c2nc(-c3c[nH]c4ccncc34)cs2)c2ccccc21	1.67 µM	3.07 µM
CCN(CC)CCCOc1ccc2ncnc(Nc3ccc(Oc4cccc(C(F)(F)F)c4)c(Cl)c3)c2c1	1.21 µM	2.46 µM
Cc1c(-c2coc(-c3ccccc3)n2)c(=O)n(-c2ccccc2)n1C	–	> 100 µM
Cc1ccc(S(=O)(=O)NC(=O)NCCc2ccc(O)c(O)c2)cc1	–	> 100 µM
COc1cc(OCc2nc3cc(C(F)(F)F)ccc3nc2-c2ccccc2)cc(OC)c1OC	–	> 100 µM
O=c1nc(NC(c2ccccc2)(c2ccccc2)c2ccccc2)ccn1CCCl	–	68.8 µM
C=C(C)[C@@H]1C/C=C(/CO)CC[C@H]2O[C@]2(C)CC/C=C(\C)CC1	11.9 µM	29.3 µM
CCN(CCCl)CCCCCNc1c2ccccc2nc2ccc(OC)cc12	–	4.11 µM
CCn1c(-c2ccc(OC)cc2)nc2c1C(=O)c1ccccc1C2=O	–	> 100 µM
COc1ccc2c3c(c(C(=O)O)oc13)CCC2	–	> 100 µM
CCCCC(=C=C(C)CO)C1CCCN1C(=O)OC(C)(C)C (centres undefined)	–	57.6 µM
Cc1ccc2[nH]c3c(c2c1)N=c1ccccc1=NO3	28.9 µM	> 100 µM
CC(C)(C)c1ccc(O)c(C(c2ccc([N+](=O)[O-])cc2)c2cc(C(C)(C)C)ccc2O)c1	–	6.85 µM
CN(C)C[C@H]1CCn2c(c(C3=C(c4cn(C)c5ccccc45)C(=O)NC3=O)c3ccccc32)C1	4.32 µM	12.2 µM
Cc1cc(Br)cc(C)c1NC(=O)C(=O)C(C(=O)c1ccncc1)C1OC(=O)c2ccccc21 (centres undefined)	–	> 100 µM
Cc1cc2c(cc1C)[n+](=O)c(C(=O)/C=C/c1ccc3c(c1)OCO3)c(C)n2[O-]	–	> 100 µM

SMILES	GI50	TGI
C/C=C/c1cc2c(c(=O)o1)C(=O)[C@@H](O)[C@H](C)O2	–	48.2 µM
C#CCN(N=O)C(=O)NCCCCC(NC(=O)OCc1ccccc1)C(=O)OCc1ccccc1 (centres undefined)	–	> 100 µM
Clc1ccccc1[C@@H]1C[C@@H]2Cc3cc(Br)c4ccccc4c3N1O2	> 100 µM	> 100 µM
COC1=CC(=O)c2c(cc(COP(N)(=O)N(CCCl)CCCl)n2C)C1=O (centres undefined)	–	8.47 µM
CSC(=Nc1ccccc1Cl)NC(=O)c1ccc(Br)cc1	–	> 100 µM
CCCCCCCCCCCCCCCCNCC(O)CN (centres undefined)	–	13 µM
COc1cccc(-n2ncc3c(N/N=C/c4ccc(C)cc4)ncnc32)c1	> 25 µM	> 25 µM
O=C(O)/C=C/c1ccc[c]([Sb](=[O])([OH])[OH])c1	> 100 µM	> 100 µM
CC(N)Cc1ccc(Cl)cc1 (centres undefined)	–	> 100 µM
CCCN(CCC)CCc1cc(C(C)=O)n(S(=O)(=O)c2ccc(C)cc2)c1	–	> 100 µM
Oc1[nH]c(N=C2N=c3ccccc3=N2)c2ccccc12	11.1 µM	48.3 µM
CCNc1cc2oc(=O)cc(C(F)(F)F)c2cc1C	–	> 100 µM
O=S(=O)(c1ccccc1)c1nccs1	–	> 100 µM
O=C(Nc1cc(Cl)ccc1Cl)c1cc2cccc(Br)c2oc1=O	–	> 100 µM
CCCCOc1c(C(=O)O)cc(Br)cc1C(=O)O	–	> 100 µM
C=CC(C)(C)C1(CC(OC)OC)C(=O)N(C)c2ccccc21 (centres undefined)	–	> 25 µM
COc1cc2c3c(n(CCCCNC(=O)OC(C)(C)C)c(=O)c2cc1OC)-c1cc2c(cc1C3=O)OCO2	> 100 µM	> 100 µM
N=c1n(CC(=O)NC23CC4CC(CC(C4)C2)C3)c2ccccc2n1CC(=O)NC12CC3CC(CC(C3)C1)C2	–	6.35 µM
O=C(/C=C/c1ccc(OCc2ccccc2)cc1)NCc1ccc(C(=O)NCc2ccccc2)cc1	–	> 100 µM
COC1=CC(=O)C(Br)=CC1=O	–	> 100 µM
CCO/C(CCn1[nH]c(=O)c(Cl)c(Cl)c1=O)=N\NC(=O)C(=O)NN	–	> 100 µM
CCCCCCCCCC(O)CC(=O)c1c(O)cccc1O (centres undefined)	–	53.7 µM
Brc1c2nc3ccccc3nc2n2ccc3ccccc3c12	–	> 100 µM
Nc1nc(Nc2ccc(Cl)cc2)sc1C(=O)c1c[nH]c2ccccc12	–	38.3 µM
